Measurements reported in PubChem BioAssay AID2546 (National Center for Advancing Translational Sciences (NCATS), 2010).
The whole screen tested about 310,000 compounds, of which about 11,000 (3.5%) were called active. This list was built around the results that the source calls inconclusive (neither active nor inactive); the mix of calls is not that of the screen. Calls come from the whole dose curve; as a rule, active = well fitted inhibition curve with a large enough effect; inconclusive = small, poorly fitted or top-dose-only effect, or effect the other way; inactive = flat fitted curve, though single readings scatter. No potency is given beside an inconclusive call; the fits are too rough.

assay: VP16 counterscreen qHTS for inhibitors of ROR gamma transcriptional activity; conditions: Drosophila S2 Gal4-VP16 UAS-luciferase, luminescence, 20 h; activity, negative = inhibition: at 53.6 µM (top of the series);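 note: Gal4-VP16 expression switched on by copper sulfate through the metallothionein promoter; nearly all actives have a fitted effect of over 50% in size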
% is set by controls: 0 for no effect and ±100 for the full control effect; potency is the fitted concentration of half-maximal effect; tags give direction and shape of the fitted curve.

Row | Structure (SMILES) | Potency | activity, negative = inhibition
1 | O=[N+]([O-])c1ccc(N2CCN(C(=S)Nc3ccc(F)cc3F)CC2)cc1 | inconclusive [inhibitor, single point] | 
2 | S=c1[nH]nc(-c2ccccc2)n1/N=C/c1ccc(-c2ccccc2Cl)o1 | inconclusive [inhibitor, single point] | 
3 | COc1ccccc1Cn1c(=S)[nH]c2cc(C(=O)NCCCN3CCOCC3)ccc2c1=O | inconclusive [inhibitor, single point] | 
4 | COc1ccccc1C(=O)NCC1CCN(c2ccc(S(=O)(=O)N3CCOCC3)cc2)CC1 |  | inactive: 10.4%
5 | C=CCc1ccc(OCCOCCOc2ccccc2[N+](=O)[O-])c(OC)c1 | inconclusive [inhibitor, single point] | 
6 | COc1cc(/C=C2\SC(c3ccc(C)cc3)=NC2=O)ccc1O | active: 10 µM | 
7 | Fc1ccc(-c2nnc(NC3=NCCCCC3)o2)cc1 | inconclusive [inhibitor, partial curve, poor fit] | 
8 | CCCCCn1cnc2c(=S)nc(N)[nH]c21 | inconclusive [inhibitor, single point] | 
9 | CN(NC(=S)Nc1ccc(OC(F)F)cc1)C(=S)Nc1ccc(OC(F)F)cc1 | active: 12.6 µM | 
10 | CCOc1ccc(NC(=S)NC(=O)c2c(Cl)cnn2CC)c([N+](=O)[O-])c1 | inconclusive [inhibitor, single point] | 
11 | COc1cccc(N2CCN(C(=S)Nc3ccccc3)CC2)c1 | inconclusive [inhibitor, single point] | 
12 | CCN(CC)c1ccc(NC(=O)c2ccccc2Br)cc1S(=O)(=O)Nc1ccccc1OC | inconclusive [inhibitor, partial curve] | 
13 | COc1ccccc1CNS(=O)(=O)c1ccc2c(c1)CC(C)N2C(=O)C1CC1 (stereo unspecified) | inconclusive [inhibitor, single point] | 
14 | COC(=O)c1cc(OC)c(OC)cc1NC(=O)CC1CCCCC1 |  | inactive: 0.569%
15 | Cc1ccc(CCNC(=O)C2CCCN(C(=O)c3cc4sccc4n3C)C2)cc1 (stereo unspecified) |  | inactive: 15.9%
16 | Nn1c(SCC(=O)N2CCOCC2)nnc1C1CC1 |  | inactive: 6.52%
17 | CC(=O)Nc1ccc(S(=O)(=O)Nc2ccc3c(c2)OCCO3)cc1Cl | active: 12.6 µM | 
18 | O=C(c1cc(COc2ccc(F)cc2F)on1)N1CCN(C(=O)c2ccco2)CC1 |  | inactive: -2.27%
19 | NC(=O)CC(NC(=O)c1ccccc1)c1ccc(N2CCc3ccccc3C2)c([N+](=O)[O-])c1 (stereo unspecified) | inconclusive [inhibitor, single point] | 
20 | O=C(O)C(c1ccccc1)N1C(=O)/C(=C\c2ccc(-c3ccc(Br)cc3)o2)SC1=S (stereo unspecified) |  | inactive: -1.54%
21 | COc1cccc2c1C(=O)c1c(O)c3c(c(O)c1C2=O)C[C@@](O)(C(=O)CO)C[C@@H]3OC1CC(N)C(O)C(C)O1 (stereo partly specified) | active: 10 µM | 
22 | O=C(NCCC(=O)N1CCC2(CC1)NCCc1[nH]cnc12)c1cccc(Br)c1 |  | inactive: -9.77%
23 | S=C(NC1CCCCC1)N(CCc1nc2ccccc2[nH]1)C1CCCC1 | inconclusive [inhibitor, single point] | 

Row | Structure (SMILES) | Potency | activity, negative = inhibition
24 | C(=Nc1ccc(Nc2ccccc2)cc1)c1ccc2ccccc2c1 | active: 12.6 µM | 
25 | O=C(Nc1ccccc1C(=O)O)c1ccc(NC(=O)C2CC2)cc1 |  | inactive: 2.72%
26 | Cc1ccc(C(=O)NCCCNC(=O)COc2ccc(Cl)cc2)cn1 |  | inactive: -6%
27 | O=S(=O)(c1ccc(Cl)cc1)N1CCCC(C(F)(F)F)C1 (stereo unspecified) | inconclusive [inhibitor, full curve, poor fit] | 
28 | O=C(N/N=C/c1ccc(-c2cccc(C(F)(F)F)c2)o1)c1cccc(F)c1 | active: 1.26 µM | 
29 | COc1ccc(CC(=O)NCC2(N3CCCCC3)CCCCC2)cc1 |  | inactive: 7.26%
30 | O=C(NNC(=O)c1ccccn1)c1cccc([N+](=O)[O-])c1 | inconclusive [inhibitor, single point] | 
31 | CCc1cc[n+](-c2nc3ccccc3nc2[N-]S(=O)(=O)c2ccc(Br)s2)cc1 | inconclusive [inhibitor, partial curve] | 
32 | CC(=O)OCC(=O)Nc1ccc(Br)c(C)c1 | inconclusive [activator, single point] | 
33 | N/C(=N/OC(=O)c1ccc(Cl)cc1)c1ncc([N+](=O)[O-])s1 |  | inactive: 8.21%
34 | O=C(NCc1ccccc1)c1cc2ccc(O)cc2oc1=O | active: 7.08 µM | 
35 | CC(C)c1ccc(NC(=S)NN2C(C)CCCC2C)cc1 (stereo unspecified) | active: 6.31 µM | 
36 | O=C(N/N=C/c1ccc(N2CCOCC2)cc1)c1ccc(O)cc1 | inconclusive [inhibitor, partial curve] | 
37 | CN1CCN(c2ncc3nc(-c4cn(C)c5ccccc45)c(=O)n(CCC#N)c3n2)CC1 | inconclusive [inhibitor, single point] | 
38 | O=C(O)CCSCC(=O)c1ccc2c(c1)OCCO2 | active: 3.55 µM | 
39 | CCCN(CCC)CCCNC(=O)CC(C(=O)N1CCc2ccccc21)n1ccnc1 (stereo unspecified) |  | inactive: -3.86%
40 | Oc1c(N=Nc2ccccc2)sc2ccccc12 | inconclusive [inhibitor, single point] | 
41 | O=C(NCc1ccncc1)c1cn(-c2ccccc2)nc1-c1cccnc1 | inconclusive [inhibitor, partial curve] | 
42 | Cc1nc(NC(=O)CSc2cc(C)c3ccccc3n2)c(Cl)cc1Cl | inconclusive [inhibitor, single point] | 
43 | CO/C=C\C=C/c1nnn(-c2ccc(Cl)cc2)n1 | inconclusive [inhibitor, single point] | 
44 | COc1ccc(-c2csc(NC(=S)NC(=O)/C=C/c3ccco3)n2)cc1Br | inconclusive [inhibitor, single point] | 
45 | CCc1nnc(N/N=C/c2ccc(-c3ccc([N+](=O)[O-])cc3)o2)n1N | inconclusive [inhibitor, full curve, poor fit] | 
46 | N#C/C(=C/c1ccc(N2CCOCC2)o1)C(=O)NC1CCCCC1 | inconclusive [activator, single point] | 
